Where “and” joins values, the source holds several entries; their conditions need not be identical. Equal values may be shown once. This is one part of the list. These are further read-outs of the screen, such as a control signal, another cell line or another target. No call is given for them. The list favours compounds with an active or inconclusive main result. The note in brackets gives the kind of curve behind each potency; many fits are weak.
experiment: qHTS Assay for Lipid Storage Modulators (AID 1519); details: Drosophila S3 cells, BODIPY lipid droplet/cell ratio, laser cytometry; measured here: cell number channel AC50; cells loaded with oleic acid
Method in brief: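 Cells seeded at 5,000 per well were treated with compounds over a concentration series and loaded with oleic acid (400 uM, as added). Lipid droplet fluorescence (488 nm excitation, 500-530 nm channel) was read by laser-scanning cytometry and normalized to 20 uM Triacsin C.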
Tags describe the fitted curve by direction and shape.

**Q.** For `CN1CCN(C2=Cc3ccccc3Oc3ccc(Cl)cc32)CC1`, which AC50 is on record?
**A.** The AC50 was 28.2 µM [rising, partial curve, poor fit].

**Q.** Which AC50 does the source give for `O[C@H](CN1CCN(c2cccc(Cl)c2)CC1)C(c1ccccc1)c1ccccc1` here?
**A.** Its AC50 is 14.1 µM [rising, partial curve, poor fit].

**Q.** With `COc1cccc(Cn2c(=O)c(-c3cccs3)nc3cnc(Nc4ccccc4)nc32)c1` as the molecule, how does the AC50 read?
**A.** Its AC50 is 0.794 µM [rising, full curve].

**Q.** With `COC(=O)N1CCC2(CCN(C(=O)Nc3ccc(OC)cc3)CC2)CC1` as the molecule, how does the AC50 read?
**A.** Its AC50 is 3.55 µM [rising, partial curve, poor fit].

**Q.** Which AC50 does the source give for `COc1cccc(NC(=O)/C=C\c2ccc(Cl)cc2)c1` here?
**A.** Its AC50 is 7.94 µM [rising, partial curve, poor fit].

**Q.** With `CC(=O)O[C@H]1C(=O)[C@@]2(C)[C@H]([C@H](OC(=O)c3ccccc3)[C@]3(O)C[C@H](OC(=O)[C@H](O)[C@@H](NC(=O)c4ccccc4)c4ccccc4)C(C)=C1C3(C)C)[C@]1(OC(C)=O)CO[C@@H]1C[C@@H]2O` as the molecule, how does the AC50 read?
**A.** Its AC50 is 0.251 µM [rising, full curve, poor fit].

same assay, conditions: Drosophila S3 cells, BODIPY lipid droplet/cell ratio, laser cytometry; measured here: lipid (BODIPY) channel AC50; cells loaded with oleic acid

**Q.** For `CN(C)Cc1ccccc1-c1nc(NC2CC2)c2ccccc2n1`, which AC50 is on record?
**A.** Its AC50 is 3.55 µM [rising, single point].

**Q.** Which AC50 does the source give for `O=C(/C=C/C=C/c1ccc2c(c1)OCO2)N1CCCCC1` here?
**A.** The AC50 was 1.12 µM [rising, full curve, poor fit].

**Q.** Which AC50 does the source give for `N[C@@H](Cc1ccccc1)C(=O)O` here?
**A.** Its AC50 is 35.5 µM [rising, single point].

**Q.** With `c1ccc(N2CCN(CCCOc3ccc4c(c3)OCO4)CC2)cc1` as the molecule, how does the AC50 read?
**A.** Its AC50 is 8.91 µM [rising, partial curve, poor fit].

**Q.** Which AC50 does the source give for `Cc1nc2cnc(OCc3ccccc3)nc2n(CCc2ccccc2)c1=O` here?
**A.** Its AC50 is 2.51 µM [rising, partial curve, poor fit].

**Q.** Which AC50 does the source give for `COc1cccc(Cn2c(=O)c(-c3ccccc3)nc3cnc(N(C)C)nc32)c1` here?
**A.** Its AC50 is 0.316 µM [rising, full curve].

**Q.** Which AC50 does the source give for `COc1ccc(CNc2nc(-c3ccccc3CN(C)C)nc3ccccc23)c(OC)c1` here?
**A.** Its AC50 is 35.5 µM [falling, single point].

**Q.** With `O=C(Nc1ccccc1)N1CCCC2(CCN(C(=O)c3cccc(F)c3)CC2)C1` as the molecule, how does the AC50 read?
**A.** The AC50 was 0.0631 µM [rising, full curve, poor fit].

**Q.** With `c1cc2c3c(c1)c1c(n3CCNC2)CCCC1` as the molecule, how does the AC50 read?
**A.** Its AC50 is 31.6 µM [rising, partial curve].

**Q.** For `Cc1cccc(CNc2cc(-c3ccccc3C)ncn2)c1`, which AC50 is on record?
**A.** Its AC50 is 39.8 µM [falling, single point].

**Q.** For `CC(=O)Oc1cc(C(F)(F)F)ccc1C(=O)O`, which AC50 is on record?
**A.** Its AC50 is 0.316 µM [rising, full curve, poor fit].

**Q.** For `O=C(c1ccco1)N1CCC2(CCN(Cc3cc(C(F)(F)F)cc(C(F)(F)F)c3)CC2)CC1`, which AC50 is on record?
**A.** The AC50 was 0.562 µM [rising, full curve, poor fit].

**Q.** Which AC50 does the source give for `COC(=O)N1CCC2(CCCN(C(=O)Nc3ccccc3)C2)CC1` here?
**A.** The AC50 was 3.55 µM [rising, single point].

**Q.** With `Cn1cccc1C(=O)N1CCC2(CCCN(c3ncccn3)C2)CC1` as the molecule, how does the AC50 read?
**A.** Its AC50 is 0.708 µM [rising, full curve, poor fit].

**Q.** Which AC50 does the source give for `COc1cc(C=O)ccc1O` here?
**A.** Its AC50 is 14.1 µM [rising, partial curve, poor fit].

**Q.** For `COc1ccc(CNc2ccnc(-c3ccccc3OC)n2)c(OC)c1`, which AC50 is on record?
**A.** Its AC50 is 1.41 µM [rising, full curve].

**Q.** With `O=c1c(O)c(-c2ccc(O)cc2O)oc2cc(O)cc(O)c12` as the molecule, how does the AC50 read?
**A.** The AC50 was 0.0224 µM [rising, full curve, poor fit].

**Q.** With `CCCCC[C@H](O)C=C[C@H]1[C@H](O)CC(=O)[C@H]1CCCCCCC(=O)O` as the molecule, how does the AC50 read?
**A.** Its AC50 is 15.8 µM [rising, single point].

**Q.** Which AC50 does the source give for `Cc1cccc(CNc2ccnc(-c3cccc(C#N)c3)n2)c1` here?
**A.** The AC50 was 5.62 µM [rising, partial curve, poor fit].

**Q.** For `CNCCCCCCCCSc1nc(C(C)C)ccc1C(=O)c1cccs1`, which AC50 is on record?
**A.** Its AC50 is 7.94 µM [rising, full curve].

**Q.** With `CC(=O)OCC(COC(C)=O)OC(C)=O` as the molecule, how does the AC50 read?
**A.** Its AC50 is 39.8 µM [rising, single point].

**Q.** With `CC(C)(Oc1ccc(Cl)cc1)C(=O)O` as the molecule, how does the AC50 read?
**A.** Its AC50 is 31.6 µM [rising, partial curve] and 35.5 µM [rising, single point].

**Q.** For `COc1ccccc1CNc1ncncc1-c1ccccc1C(F)(F)F`, which AC50 is on record?
**A.** The AC50 was 0.355 µM [rising, full curve].
